Results as given in the supplement of paper PMC10126150.
Sequences with one replicate were seen in a single cluster, so their values are uncertain.

Tested on: ATP
Test: switch fluorescence ratio, 500 uM ATP over buffer (Cy3 cluster intensity, sum of 5 cycles each) (fold (ratio)); higher = stronger signal-on switching upon ATP binding; sequences stand for … in TCGTCGGCAGCGTCAGATGTGTATAAGAGACAGTTTTTTTTTTTTTTTTTTTTTTTTT…TC
Conditions: aptamer strand: ATP DNA aptamer (quencher-CACCTGGGGGAGTATTGCGGAGGAAGG + anchor), 100 nM annealed; ATP concentration: 500 uM; one replicate
How it was run: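 Cy3-labelled switching-strand clusters on a modified Illumina MiSeq flow-cell were annealed to 100 nM quencher-labelled ATP aptamer, imaged in selection buffer, then imaged after 15 min with 500 uM ATP at 22 °C. Five buffer/ATP cycles ran, with NaOH stripping and re-annealing between them. The fluorescence ratio is summed target-cycle over summed buffer-cycle Cy3 intensity per cluster, averaged per switch-domain sequence. Clusters outside 100-1000 RFU were excluded.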
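Also: ATP exposure 15 min at 22 °C before imaging.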

Row | Sequence | switch fluorescence ratio
1 | TAAGCACTTT | 1.1
2 | GATTAGTAGA | 1.02
3 | AGTCCGGATC | 0.973
4 | GTTGTCCCTT | 0.999
5 | GGCATGAAGG | 1.03
6 | CTGTGTCACG | 0.956
7 | TTGCTCCGAC | 2.26
8 | CAGAGAAATG | 0.974
9 | TCGAGGCTGG | 0.961
10 | CTTTTGGA | 0.989
11 | GACGGGTTCT | 0.982
12 | TTGTGAAGTA | 0.976
13 | CAGACATGGG | 0.999
14 | CCGGTACAGA | 1.06
15 | TAATTTAAT | 1.02
16 | GAGCGATGCG | 1.26

Row | Sequence | switch fluorescence ratio
17 | CCGTCGTGCG | 1
18 | GGAGGCACCG | 1.03
19 | TGTGTCGCAA | 1.37
20 | TTGTGACGTA | 0.957
21 | TCTAGTTCCG | 0.988
22 | AGGCAACATC | 1.08
23 | AGTATATTCT | 0.965
24 | TCGCTTGCAC | 1.12
25 | ACTCGGCTGG | 0.944
26 | ACGAGGTGTA | 1.07
27 | CCCCTGGAT | 1.05
28 | TCAGCCGGCC | 0.985
29 | TTAAGAACGT | 0.963
30 | CGGTCATTTA | 1.03
31 | CACGGGGTTA | 1.02
32 | GGTGGATACG | 1.05
